Among all 350,000 compounds or so, about 31,000 (8.9%) were called active. Inconclusive results, whose numbers are uncertain, are shown with a selection of clear calls. Calls follow the shape of the dose curve; as a rule, active = well fitted inhibition curve with a large enough effect; inconclusive = small, poorly fitted or top-dose-only effect; inactive = no such curve, though single readings can be large or run the other way. A potency beside an inconclusive call is a rough fit, not a confirmed value.
molecular target: Histone-lysine N-methyltransferase EHMT2 (Homo sapiens) (UniProt Q96KQ7); assay: qHTS Assay for Inhibitors of Histone Lysine Methyltransferase G9a; details: G9a H3K9 monomethylation, AlphaScreen, 2 h; activity, negative = inhibition: at 59 µM (top of the series) unless noted; also: nearly all actives have a fitted effect of over 75% in size
UniProt Q96KQ7, sequence (Q96KQ7 whole entry, looked up): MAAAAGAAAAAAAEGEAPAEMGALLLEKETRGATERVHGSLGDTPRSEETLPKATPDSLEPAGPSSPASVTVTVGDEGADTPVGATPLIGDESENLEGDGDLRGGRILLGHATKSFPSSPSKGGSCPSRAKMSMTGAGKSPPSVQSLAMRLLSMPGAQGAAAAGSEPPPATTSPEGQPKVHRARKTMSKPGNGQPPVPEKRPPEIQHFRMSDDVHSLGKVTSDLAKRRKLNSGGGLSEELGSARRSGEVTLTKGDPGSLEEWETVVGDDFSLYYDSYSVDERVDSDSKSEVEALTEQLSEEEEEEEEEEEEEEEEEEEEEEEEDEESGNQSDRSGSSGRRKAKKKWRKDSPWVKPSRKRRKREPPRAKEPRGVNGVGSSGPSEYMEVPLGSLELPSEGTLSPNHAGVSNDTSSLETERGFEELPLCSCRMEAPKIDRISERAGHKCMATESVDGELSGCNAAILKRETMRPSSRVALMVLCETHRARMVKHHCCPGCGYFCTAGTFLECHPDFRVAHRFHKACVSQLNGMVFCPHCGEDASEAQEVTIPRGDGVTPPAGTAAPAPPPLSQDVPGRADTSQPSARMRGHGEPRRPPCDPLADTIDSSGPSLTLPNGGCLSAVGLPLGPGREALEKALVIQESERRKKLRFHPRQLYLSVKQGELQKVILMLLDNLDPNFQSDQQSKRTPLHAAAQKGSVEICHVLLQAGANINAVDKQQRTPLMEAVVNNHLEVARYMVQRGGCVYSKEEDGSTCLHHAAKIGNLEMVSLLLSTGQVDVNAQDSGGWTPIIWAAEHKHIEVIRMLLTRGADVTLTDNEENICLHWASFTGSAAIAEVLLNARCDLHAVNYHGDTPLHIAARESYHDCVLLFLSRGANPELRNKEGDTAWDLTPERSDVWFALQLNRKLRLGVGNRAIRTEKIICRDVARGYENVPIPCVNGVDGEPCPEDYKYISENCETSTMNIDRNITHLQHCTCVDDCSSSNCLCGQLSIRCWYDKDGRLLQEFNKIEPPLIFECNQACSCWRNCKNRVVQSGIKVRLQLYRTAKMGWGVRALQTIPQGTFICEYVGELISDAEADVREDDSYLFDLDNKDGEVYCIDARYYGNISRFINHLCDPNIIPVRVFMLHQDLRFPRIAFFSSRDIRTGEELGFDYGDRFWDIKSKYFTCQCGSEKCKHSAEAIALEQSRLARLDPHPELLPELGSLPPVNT
In short: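 Step 1: enzyme (final 20 nM) with compound, 15 min RT. Step 2: substrate peptide 500 nM and SAM 20 uM, 2 h RT. Step 3: anti-H3K9me1 antibody and AlphaScreen beads, 10 min, then plate read.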
% is scaled to controls: 0 for no effect and ±100 for the full control effect; potency is read from the fitted curve at half-maximal effect; tags tell the direction and shape of the fitted curve.

| Structure (SMILES) | activity, negative = inhibition | Potency |
| --- | --- | --- |
| Cc1sc2ncnc(SCC(=O)N3CCCCC3)c2c1C | inactive: 18.5% [at 102 µM] |  |
| COc1ccc(CNc2nc3ccccc3n2CCN2CCOCC2)cc1 | inactive: 7.12% |  |
| Cc1csc(NC(=O)c2ccco2)c1C(=O)c1ccccc1 | inactive: -6.38% [at 102 µM] |  |
| O=C(NCc1ccccc1)C12CC3CC(CC(C3)C1)C2 |  | active: 31.6 µM |
| CCCn1c(SCC(=O)c2c(C)[nH]c(C)c2C(=O)OCC)nc2ccccc21 |  | inconclusive: 20 µM [inhibitor, single point] |
| NS(=O)(=O)c1ccc(CCNC(=O)c2ccccc2-c2ccccc2)cc1 |  | inconclusive: 89.1 µM [inhibitor, single point] |
| COc1ccc(Cc2nnc(SCC(=O)N3CCN(c4ccccc4)CC3)o2)cc1 |  | inconclusive: 25.1 µM [inhibitor, single point] |
| Cc1cccc(CN2CCc3c(OCC(=O)NCc4ccco4)cccc3C2=O)c1 |  | inconclusive: 1.26 µM [inhibitor, partial curve] |
| CCOc1ccc(C(=O)NC2CCN(C(=S)NCc3ccco3)CC2)cc1 |  | inconclusive: 39.8 µM [inhibitor, single point] |
| CC1CCCCC1NC(=O)Cc1ccc(S(=O)(=O)N2CCOCC2)s1 (stereo not drawn) |  | inconclusive: 79.4 µM [inhibitor, partial curve, poor fit] |
| CC(=O)c1nc(N2C(=O)CC(Cc3ccccc3)C2=O)sc1C (stereo not drawn) |  | inconclusive: 10 µM [inhibitor, partial curve, poor fit] |
| Cc1ccc(-n2ncc(C(=O)N3CCC(c4ccccc4)C3)c2C2CCN(C(=O)OC(C)(C)C)CC2)cc1 (stereo not drawn) | inactive: -37.8% |  |
| CC(C)C(=O)Nc1ccc(C(=O)N2CCCCCC2)cc1 |  | inconclusive: 3.98 µM [inhibitor, partial curve, poor fit] |
| CCc1ccc(-c2cc(C)no2)cc1S(=O)(=O)NCCc1ccc(OC)c(OC)c1 |  | inconclusive: 89.1 µM [inhibitor, partial curve, poor fit] |
| Cc1cccn2cc(CCNC(=O)Cc3cccs3)nc12 | inactive: 1.77% [at 102 µM] |  |
| COc1cccc(/C=C2\SC(=S)N(C(C(=O)O)c3ccccc3)C2=O)c1OC (stereo not drawn) |  | inconclusive: 44.7 µM [inhibitor, partial curve] |
| CCCCN(C(=O)CC1OC(=O)c2ccccc21)c1c(N)n(CCCC)c(=O)[nH]c1=O (stereo not drawn) |  | inconclusive: 2 µM [inhibitor, partial curve] |
| N#CC1(NC(=O)COC(=O)c2nccnc2N)CCCCC1 |  | inconclusive: 89.1 µM [inhibitor, partial curve, poor fit] |
| CCC(C)[C@@H](NC(=O)OC(C)(C)C)c1nnc(S(=O)(=O)Cc2cccc(C)c2)o1 (stereo partly drawn) |  | inconclusive: 39.8 µM [inhibitor, partial curve, poor fit] |
| COc1ccccc1N1CCN(CCCCOc2c(OC)cccc2OC)CC1 | inconclusive: -60.9% [inhibitor] [at 2.33 µM] |  |
| O=C(O)CNC(=S)N(Cc1ccco1)Cc1ccccc1Cl |  | inconclusive: 25.1 µM [inhibitor, single point] |
| CCOc1ccc(N2C(=O)CC(N(CCc3ccccc3)C(=O)/C=C/C(=O)O)C2=O)cc1 (stereo not drawn) |  | inconclusive: 79.4 µM [inhibitor, partial curve, poor fit] |
| O=C(NC(Cc1c[nH]c2ccccc12)C(=O)OCC(=O)c1cccc2ccccc12)c1cccs1 (stereo not drawn) |  | inconclusive: 12.6 µM [inhibitor, single point] |

| Structure (SMILES) | activity, negative = inhibition | Potency |
| --- | --- | --- |
| Nc1[nH]nc2nc(NCc3ccccc3)c3c(c12)CCN(Cc1ccccc1)C3 |  | inconclusive: 3.16 µM [inhibitor, full curve] |
| Cc1cc(/C=N/NC(=O)c2cc3ccccc3o2)c(C)n1C |  | inconclusive: 89.1 µM [inhibitor, single point] |
| COCCCNC(=S)NCCc1ccc(F)cc1 |  | inconclusive: 39.8 µM [inhibitor, partial curve, poor fit] |
| CCc1nnc(NC(=O)CSc2nnc(Cc3cccn3C)n2CCOC)s1 |  | inconclusive: 39.8 µM [inhibitor, single point] |
| COc1ccc(-n2c(=O)c(C)nc3cnc(OC)nc32)cc1 | inactive: -2.05% [at 0.501 µM] |  |
| CCOC(=O)C1(CC2CC2)CCN(Cc2cn[nH]c2-c2ccccc2)CC1 |  | inconclusive: 0.631 µM [inhibitor, partial curve, poor fit] |
| N#CC1=C2SCN(Cc3ccco3)CN2C(=O)CC1c1ccccc1F (stereo not drawn) |  | active: 0.282 µM |
| O=C(CCCC(=O)OCC(=O)c1cccs1)Nc1ccc(Oc2ccccc2)cc1 | inactive: 21% |  |
| O=C1CC[C@H](C(=O)O)N1 | inactive: 19.5% |  |
| O=C(/C=C/c1ccccc1)N1CCN(Cc2cc(=O)n3nc(-c4ccccc4)sc3n2)CC1 | inactive: -8.45% |  |
| Cc1cccc(C(=O)NC2CCN(C(=O)NCc3ccccc3)CC2)c1 |  | active: 11.2 µM |
| CCCCCC[N+](C)(C)CCSSCC[N+](C)(C)CCCCCC | inconclusive: -86% [inhibitor] |  |
| Cc1cccc(C2C3=C(CCCC3=O)N=C3c4ccccc4C(=O)C32)c1 (stereo not drawn) |  | inconclusive: 44.7 µM [inhibitor, partial curve, poor fit] |
| Nn1cnnc1N/N=C/c1cc([N+](=O)[O-])c(Cl)cc1Cl |  | inconclusive: 15.8 µM [inhibitor, partial curve, poor fit] |
| COC(=O)CCN1CCN(S(=O)(=O)c2ccccc2Br)CC1 |  | active: 3.55 µM |
| O=S(=O)(c1ccccc1)c1nc(-c2ccco2)oc1NCc1ccco1 | inconclusive: -107% [inhibitor] |  |
| COc1ccc(N2C(=O)C(Cc3ccccc3)NC2=S)cc1 (stereo not drawn) |  | inconclusive: 15.8 µM [inhibitor, partial curve, poor fit] |
| COc1ccc(OC)c(N/C(C)=C/C(=O)c2ccccc2)c1 |  | inconclusive: 31.6 µM [inhibitor, single point] |
| CC1CCCN(C(=O)C2CCN(CC(C)c3ccccc3)CC2)C1 (stereo not drawn) |  | inconclusive: 25.1 µM [inhibitor, single point] |
| COC(=O)c1c(NC(=O)Cc2ccc(OC)c(S(=O)(=O)N3CCOCC3)c2)sc(C)c1C |  | active: 50.1 µM |
| OCCN(CCO)CC(O)CN1c2ccccc2Sc2ccccc21 (stereo not drawn) |  | inconclusive: 70.8 µM [inhibitor, single point] |
| Nc1ccc2nc(C3CCCCC3)[nH]c2c1 |  | inconclusive: 50.1 µM [inhibitor, partial curve, poor fit] |
| Cc1ccccc1NC(=O)c1sc2nc(N3CCOCC3)c3c(c2c1N)CC(C)(C)OC3 |  | inconclusive: 10 µM [inhibitor, partial curve] |

| Structure (SMILES) | activity, negative = inhibition | Potency |
| --- | --- | --- |
| CCCCNC(=S)Nc1ccc2[nH]c(=O)[nH]c2c1 | inconclusive: -93.8% [inhibitor] |  |
| CCCOc1ccc(C2C(=O)N(C3CCCCCC3)CC(=O)N2CCCOCC)cc1OC (stereo not drawn) | inactive: -4.42% |  |
| CCN(CC(=O)Nc1cc(OC)ccc1OC)Cc1nc2ccccc2c(=O)[nH]1 | inactive: 9.94% [at 102 µM] |  |
| Cc1ccc(OCCCCNC(C)(C)C)c([N+](=O)[O-])c1 |  | active: 10 µM |
| Cn1c(SCC(=O)c2ccc3c(c2)Cc2ccccc2-3)nnc1-c1cccc(N)c1 |  | inconclusive: 2.24 µM [inhibitor, full curve] |
| Cc1ccc(OCc2n[nH]c(=S)n2C2CCCCC2)cc1 |  | active: 1.12 µM |
| CCOc1ccccc1Nc1nc(-c2sc(NC(=O)c3ccc([N+](=O)[O-])cc3)nc2C)cs1 |  | inconclusive: 56.2 µM [inhibitor, single point] |
| CCOc1ccccc1N1CC(c2nc3ccccc3n2CCOc2ccc(C(C)(C)C)cc2)CC1=O (stereo not drawn) |  | inconclusive: 3.55 µM [inhibitor, partial curve, poor fit] |
| CC(=O)c1cccc(NC(=O)CNC(=O)c2sc3ccccc3c2Cl)c1 | inactive: -0.937% |  |
| CCOc1ccc(N2C(=O)CN(O)C=C3N=c4ccccc4=C32)cc1 | inactive: -47.7% [at 102 µM] |  |
| COc1ccc2c(c1)c1c(c(=O)n(CCc3ccccc3)c(=O)n1Cc1ccc(Cl)cc1)n2C | inactive: 4.54% |  |
| COc1ccc(NC(=O)c2cc3cccc(OC)c3oc2=Nc2ccc(C(=O)O)cc2)cc1OC |  | active: 39.8 µM |
| FC(F)(F)c1ccc(/C=N/n2c(COc3ccccc3)n[nH]c2=S)cc1 | inactive: -4.62% [at 2.33 µM] |  |
| Cc1ccc(NC(=O)/C(C#N)=C\c2ccc(Cl)cc2Cl)cc1C |  | inconclusive: 2 µM [inhibitor, partial curve, poor fit] |
| CSCCC(NC(=O)c1ccco1)C(=O)OCC(=O)N(Cc1ccccc1)C(C)(C)C (stereo not drawn) |  | inconclusive: 79.4 µM [inhibitor, partial curve, poor fit] |
| COc1ccccc1NS(=O)(=O)c1ccc(NC(=O)CCNC(=O)c2ccco2)cc1 |  | inconclusive: 50.1 µM [inhibitor, partial curve, poor fit] |
| Clc1ccc(OCCOCCN2CCCCC2)c(Br)c1 |  | active: 3.16 µM |
| CCOC(=O)c1ccc(NC(=O)c2ccc(CN3CCc4ccccc4C3)cc2)cc1 |  | inconclusive: 2.51 µM [inhibitor, partial curve, poor fit] |
| COc1cc(NC(=O)N2CCN(c3cc(-c4noc(C)n4)ccc3C)CC2)cc(OC)c1OC | inactive: 14% |  |
| Cc1cccc(CCNS(=O)(=O)c2ccc(S(=O)(=O)N3CCCCC3)cc2)c1 |  | inconclusive: 50.1 µM [inhibitor, partial curve, poor fit] |
| CCN(CC(=O)NCc1ccc(Cl)cc1)C(=O)c1ccc2cc(OC)ccc2c1 |  | inconclusive: 89.1 µM [inhibitor, partial curve, poor fit] |
| Cn1c(=N)n(CC(=O)c2ccc(Br)s2)c2ccccc21 |  | inconclusive: 89.1 µM [inhibitor, single point] |

From PubChem BioAssay AID504332 (National Center for Advancing Translational Sciences (NCATS), 2011)
